Assay results published in publication PMC11856857, “Protease-Resistant, Broad-Spectrum Antimicrobial Peptides with High Antibacterial and Antifungal Activity” (Life, 2025).

Experiments:
Conditions in all cases: broth microdilution, 1024 to 0.125 µg/mL, triplicate
S. aureus ATCC 29213 = type: cell-based, Staphylococcus aureus
E. coli ATCC 25922 = type: cell-based, Escherichia coli
P. aeruginosa ATCC 27853 = type: cell-based, Pseudomonas aeruginosa

Sequence: RLLRLLLRLLR [D/L-TN6, TN6 template, arginine in L-form, leucine in L- and D-forms]
- MIC S. aureus (S. aureus ATCC 29213): 8 µg/mL
- MIC E. coli (E. coli ATCC 25922): 8 µg/mL
- MIC P. aeruginosa (P. aeruginosa ATCC 27853): 16 µg/mL
